Results: PubChem BioAssay AID1347165 (National Center for Advancing Translational Sciences (NCATS), 2019)
Screen size: about 220,000 compounds; about 5,700 (2.6%) were called active. Inconclusive means that the source gave no clear call. Such entries were picked first, then a sample of the others. Calls come from the whole dose curve; as a rule, active = well fitted inhibition curve with a large enough effect; inconclusive = small, poorly fitted or top-dose-only effect; inactive = no such curve, though single readings can be large or run the other way. Potencies beside an inconclusive call are fits to weak or partial responses and may not hold up.
Note: nearly all actives have a fitted effect of over 70% in size.
Potency is the fitted concentration of half-maximal effect; tags give direction and shape of the fitted curve.
Throughout, for activity change, negative = inhibition: 0% is about no effect.

What follows are molecules tested against Lysine-specific demethylase 5B (Homo sapiens) (UniProt Q9UGL1) (assay: Primary screen for KDM5B Histone Demethylases FDH-coupled qHTS). Conditions: FDH-coupled NADH fluorescence (FDH is formaldehyde dehydrogenase); activity change, negative = inhibition: at 57.7 µM (top of the series) unless noted.
UniProt Q9UGL1, sequence (Q9UGL1 whole entry, looked up): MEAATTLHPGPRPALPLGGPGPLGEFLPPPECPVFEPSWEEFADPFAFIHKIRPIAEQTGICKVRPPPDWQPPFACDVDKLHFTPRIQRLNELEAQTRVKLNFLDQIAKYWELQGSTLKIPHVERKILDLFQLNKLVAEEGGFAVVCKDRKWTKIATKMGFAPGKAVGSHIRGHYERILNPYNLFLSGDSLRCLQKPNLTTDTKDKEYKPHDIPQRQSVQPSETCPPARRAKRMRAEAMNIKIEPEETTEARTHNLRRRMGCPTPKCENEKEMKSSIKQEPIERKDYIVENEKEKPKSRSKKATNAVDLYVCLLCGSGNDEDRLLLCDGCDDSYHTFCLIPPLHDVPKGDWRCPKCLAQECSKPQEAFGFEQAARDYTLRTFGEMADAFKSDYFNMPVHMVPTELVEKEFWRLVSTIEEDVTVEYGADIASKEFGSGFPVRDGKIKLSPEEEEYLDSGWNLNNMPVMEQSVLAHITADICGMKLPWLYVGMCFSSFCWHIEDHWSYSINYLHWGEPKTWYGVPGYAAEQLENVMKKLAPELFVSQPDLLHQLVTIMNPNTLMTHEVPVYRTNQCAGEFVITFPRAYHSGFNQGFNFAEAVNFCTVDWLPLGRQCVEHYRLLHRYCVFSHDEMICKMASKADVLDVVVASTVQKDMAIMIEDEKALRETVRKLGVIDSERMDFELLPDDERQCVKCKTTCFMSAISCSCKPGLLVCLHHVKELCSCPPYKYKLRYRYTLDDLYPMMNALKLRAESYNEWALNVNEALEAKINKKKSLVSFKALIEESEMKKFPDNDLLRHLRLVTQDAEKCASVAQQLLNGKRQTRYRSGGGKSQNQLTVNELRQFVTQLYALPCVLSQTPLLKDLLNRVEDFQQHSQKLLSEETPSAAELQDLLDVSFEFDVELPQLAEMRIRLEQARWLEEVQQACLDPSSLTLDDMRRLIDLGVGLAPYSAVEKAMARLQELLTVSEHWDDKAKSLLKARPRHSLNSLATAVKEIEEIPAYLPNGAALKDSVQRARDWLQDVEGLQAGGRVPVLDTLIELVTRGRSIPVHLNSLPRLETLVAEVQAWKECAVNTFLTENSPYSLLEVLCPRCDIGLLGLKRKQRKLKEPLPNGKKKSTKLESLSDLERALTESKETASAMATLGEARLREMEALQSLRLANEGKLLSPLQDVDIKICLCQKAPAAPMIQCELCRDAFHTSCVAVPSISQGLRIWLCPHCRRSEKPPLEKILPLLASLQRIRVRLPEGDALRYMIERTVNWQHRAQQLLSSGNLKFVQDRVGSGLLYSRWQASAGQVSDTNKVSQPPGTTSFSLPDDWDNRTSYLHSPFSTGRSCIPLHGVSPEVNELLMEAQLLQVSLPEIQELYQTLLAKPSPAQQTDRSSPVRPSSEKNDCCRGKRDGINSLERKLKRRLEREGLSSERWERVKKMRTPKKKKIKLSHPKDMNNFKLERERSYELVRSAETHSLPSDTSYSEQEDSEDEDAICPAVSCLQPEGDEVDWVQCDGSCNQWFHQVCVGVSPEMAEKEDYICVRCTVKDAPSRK
Outline: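 Here, H3K4me3 peptide (12.5 µM in substrate mix) is demethylated by KDM5BΔAP, 200 nM final, after 10 min compound exposure. Formaldehyde product is coupled through FDH (0.25 U/mL in mix) to NADH fluorescence; 30-min ΔRFU feeds dose-response curves.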
In the case of `COc1ccc(N2CC(NC(=O)COc3ccc4ccccc4c3)CC2=O)cc1` (stereo unspecified), the Potency is reported as inconclusive: 3.98 µM [inhibitor, partial curve, poor fit]. `CC(C)n1nccc1S(=O)(=O)N[C@@H]1[C@@H](Cc2ccccc2)[C@H]2OCC[C@@H]12` was tested, and the Potency was inconclusive: 5.01 µM [inhibitor, full curve]. For `O=C1COCC2(CN(Cc3ccsc3)C2)CN1Cc1cccc(OC(F)(F)F)c1`, the “activity change, negative = inhibition” value was inactive: -12.3% [at 86.2 µM]. With `O=C(NCc1ccccc1Cn1cccn1)c1ccc2cccc(F)c2n1` the Potency was inconclusive: 31.6 µM [inhibitor, partial curve, poor fit]. `O=C(Nc1cccc(-c2nc3ccccc3o2)c1)c1ccccc1Cl` was tested, and the “activity change, negative = inhibition” value was inactive: 12.5%. In the case of `C#CCNC(=O)NC(CC(C)C)c1ccccc1` (stereo unspecified), the “activity change, negative = inhibition” value is reported as inactive: -0.713%. In the case of `Cc1ccc(-n2nnnc2CNC(=O)c2ccccc2)cc1C`, the “activity change, negative = inhibition” value is reported as inactive: -7.65%. In the case of `COc1ccc(N2CCN(CCCNC(=O)c3cc(Nc4ccccc4OC)nc4ccccc34)CC2)cc1`, the Potency is reported as inconclusive: 15.8 µM [inhibitor, partial curve, poor fit]. In the case of `O=C(NCCc1cnc[nH]1)C1CCCN(C2CCOCC2)C1` (stereo unspecified), the “activity change, negative = inhibition” value is reported as inactive: -11.3%. `CSc1nc2nc3c(cc2c(=O)n1-c1ccc(C)cc1)COC(C)(C)C3` was tested, and the Potency was inconclusive: 17.8 µM [inhibitor, single point]. For `O=C(NC1CCCC1)c1ccc2c(=O)n(Cc3ccccc3)c(SCc3ccccc3)nc2c1`, the Potency was inconclusive: 10 µM [inhibitor, partial curve, poor fit]. For `Cc1ccc(-n2nc(C(=O)Nc3ccc(C)c(F)c3)c(=O)n(C)c2=O)cc1`, the “activity change, negative = inhibition” value was inactive: 1.05%. In the case of `O=C(CCc1conc1-c1ccc(F)cc1)NCc1cccc(Br)c1`, the “activity change, negative = inhibition” value is reported as inactive: -14.5%. `C=CCNC(=O)N1CCOC(CN(CC(C)C)C(=O)c2ccccc2)C1` (stereo unspecified) was tested, and the Potency was inconclusive: 31.6 µM [inhibitor, partial curve, poor fit]. For `O=C([C@@H]1C[C@H](c2ccc(F)cc2)N(Cc2ccccc2Cl)C1)N1CCN(CCO)CC1`, the Potency was inconclusive: 35.5 µM [inhibitor, partial curve, poor fit]. `CN1CCc2c([nH]c3ccccc23)C12CCN(C(=O)c1ccncc1)CC2` was tested, and the Potency was inconclusive: 22.4 µM [inhibitor, partial curve, poor fit]. `CC1CCN(C(=O)C2CCN(c3nc4ccccc4nc3OC(C)C)CC2)CC1` was tested, and the Potency was inconclusive: 28.2 µM [inhibitor, partial curve, poor fit]. `CC(C)Cc1nc(N2CCOCC2)c(C#N)c2c1CCCC2` was tested, and the Potency was inconclusive: 25.1 µM [inhibitor, partial curve, poor fit]. `COc1ccc2cc(C(=O)NCc3cccnc3-n3cccn3)c(C)nc2c1` was tested, and the Potency was inconclusive: 15.8 µM [inhibitor, partial curve, poor fit]. `O=C(c1ccccc1)c1ccc2nc(Nc3cc(Cl)ccc3O)c3nncn3c2c1` was tested, and the “activity change, negative = inhibition” value was inactive: -40.3%. For `O=C(c1cc(CC2(NCc3ccccc3Cl)COC2)no1)N1CCCCC1`, the Potency was inconclusive: 25.1 µM [inhibitor, partial curve, poor fit]. With `CCc1ccc(C(=O)NC(C)C2CC3CCC2C3)s1` (stereo unspecified) the “activity change, negative = inhibition” value was inactive: 8.18%. With `Cc1cccc(C)c1NC(=O)CSc1nnc2[nH]c(=O)c(Cc3ccccc3)nn12` the “activity change, negative = inhibition” value was inactive: -0.663%. For `CCN1CCC(N(Cc2ccc(F)cc2)C(=O)Nc2cc(Cl)ccc2C(=O)OC)CC1`, the Potency was inconclusive: 39.8 µM [inhibitor, single point]. For `O=C(/C=C/c1cccc(O)c1)c1ccc(F)cc1`, the Potency was inconclusive: 35.5 µM [inhibitor, partial curve, poor fit]. For `CCN(CC)CCN1C(=O)c2ccccc2NC1c1cccc(F)c1` (stereo unspecified), the Potency was inconclusive: 25.1 µM [inhibitor, partial curve, poor fit]. `CC(=O)c1ccc(N2CCN(C(=O)c3ccc(Cn4c(=O)[nH]c5ccccc5c4=O)cc3)CC2)cc1` was tested, and the Potency was inconclusive: 28.2 µM [inhibitor, partial curve, poor fit]. `CCOc1cc(C(=O)Nc2ccc3sc(NC(=O)C(C)C)nc3c2)cc(OCC)c1OCC` was tested, and the Potency was inconclusive: 39.8 µM [inhibitor, single point]. In the case of `CC(=O)c1c(C)nn(CCC(=O)N[C@@H]2CCNC[C@H]2O)c1C`, the “activity change, negative = inhibition” value is reported as inactive: -15.2%. In the case of `C=CCn1c(SCC(N)=O)nc2nc3c(cc2c1=O)COC(C)(C)C3`, the Potency is reported as inconclusive: 25.1 µM [inhibitor, partial curve, poor fit]. In the case of `COc1ccc(-c2nc3cnccn3c2NC2CCCCC2)cc1`, the Potency is reported as inconclusive: 28.2 µM [inhibitor, partial curve, poor fit]. For `CSc1cccc(Nc2ncncc2-c2nc(-c3ccccc3)no2)c1`, the “activity change, negative = inhibition” value was inactive: 0.896%. `CC(C)CC(C)NC(=O)c1ccc(Cn2ccn3nc4c(c3c2=O)CCCC4)cc1` (stereo unspecified) was tested, and the Potency was inconclusive: 35.5 µM [inhibitor, single point]. `O=C(c1nc(-c2ccc(F)cc2)c2ccccn12)N1CCOCC1` was tested, and the Potency was active: 31.6 µM. With `Cc1ccc2c(c1)CCCN2C(=O)CN1CCn2nc(CO)cc2C1` the Potency was inconclusive: 11.2 µM [inhibitor, partial curve, poor fit]. For `Cc1cccc2c(C(=O)O)cc(-c3ccc(Cl)s3)nc12`, the Potency was inconclusive: 2 µM [inhibitor, full curve, poor fit]. In the case of `O=c1[nH]c(=O)n(CC2CCCO2)c2nccc(-c3ccc(-c4ccccc4)cc3)c12` (stereo unspecified), the “activity change, negative = inhibition” value is reported as inactive: 33.7%. In the case of `CC(C)CCN1CCNC(=O)C1CC(=O)NCc1ccc(O)cc1O` (stereo unspecified), the Potency is reported as inconclusive: 20 µM [inhibitor, partial curve]. With `COc1ccc(Nc2cc(C)c3cc(NC(=O)c4cc(OC)cc(OC)c4)ccc3n2)cc1` the Potency was inconclusive: 28.2 µM [inhibitor, partial curve, poor fit]. For `O=C(Nc1ccc(Cl)cc1)c1nc2ccccc2nc1N1CCOCC1`, the “activity change, negative = inhibition” value was inactive: -12.8%. For `Cc1cn2nc(C(=O)N3CCN(C(=O)c4ccc(C)s4)CC3)cc2c(=O)[nH]1`, the Potency was inconclusive: 28.2 µM [inhibitor, partial curve, poor fit]. `CN(C)C[C@@H]1CN(Cc2ccncc2)C[C@H]1N` was tested, and the Potency was active: 17.8 µM. `O=C(CCC1CCN(c2cc(NC3CC3)ncn2)CC1)NCc1ccccc1Cl` was tested, and the “activity change, negative = inhibition” value was inactive: -13.5%. In the case of `COc1ccc(-c2cc3c(=O)n(CCNC(=O)c4sccc4C)ccn3n2)cc1`, the Potency is reported as active: 25.1 µM. In the case of `COc1ccc(N(CC(=O)N/N=C/c2cccc(OC)c2OC)S(=O)(=O)c2ccccc2)cc1`, the Potency is reported as inconclusive: 25.1 µM [inhibitor, single point]. For `CCc1ccc(CNC(=O)CN2C(=O)NC3(CCC(C)CC3)C2=O)cc1` (stereo unspecified), the “activity change, negative = inhibition” value was inactive: -9.88%. With `Cc1nc2cc(NC(=O)COc3cc(Cl)ccc3Cl)ccc2o1` the “activity change, negative = inhibition” value was inactive: -6.69%. `CCCc1nc(C(=O)N2C[C@H](c3cccc(OC)c3)[C@@H](N)C2)cs1` was tested, and the Potency was inconclusive: 22.4 µM [inhibitor, partial curve, poor fit]. For `C[C@H]1[C@@H]2[C@H]3OC(=O)[C@H](C)C3CC[C@@]2(C)CC[C@@H]1NC(=O)c1ccncc1` (stereo partly specified), the “activity change, negative = inhibition” value was inactive: -19.8% [at 86.2 µM]. With `O=C(CSc1nnnn1C1CCCC1)N1N=C(c2cc3ccccc3o2)CC1c1ccco1` (stereo unspecified) the Potency was inconclusive: 17.8 µM [inhibitor, partial curve, poor fit]. In the case of `CN1C(=S)SC(N(O)C=C2C=CC(=O)C=C2)C1(C)C` (stereo unspecified), the “activity change, negative = inhibition” value is reported as inactive: -22.3%. With `COc1cccc2[nH]c(C(=O)NCC3CCCO3)cc12` (stereo unspecified) the Potency was inconclusive: 28.2 µM [inhibitor, partial curve, poor fit]. `CCN(CC)S(=O)(=O)c1cccc(NC(=O)CN2c3cccc4cccc(c34)S2(=O)=O)c1` was tested, and the Potency was inconclusive: 20 µM [inhibitor, partial curve, poor fit]. In the case of `Cc1nc2cc(NC(=O)c3cc(Cl)cc(Cl)c3)ccc2o1`, the “activity change, negative = inhibition” value is reported as inactive: 20.3%. With `COc1cccc(-c2cc3c(=O)n(CCNC(=O)c4ccccc4OC)ccn3n2)c1` the Potency was inconclusive: 28.2 µM [inhibitor, single point]. For `O=C(O)CC/C(=C\c1cc2c(cc1Br)OCO2)c1nc2ccccc2s1`, the Potency was inconclusive: 35.5 µM [inhibitor, single point]. With `COc1ccc(CNC(=O)c2ccc(-c3nc(CSc4ccccc4)c(C)o3)cc2)c(OC)c1` the Potency was inconclusive: 39.8 µM [inhibitor, single point]. `CC(=O)c1cccc(NC(=O)c2cc3nc(-c4ccc(Br)cc4)cc(C(F)(F)F)n3n2)c1` was tested, and the Potency was inconclusive: 25.1 µM [inhibitor, partial curve, poor fit]. With `Cn1cccc1CN1CCC(N2C(=O)C(OCC3CC3)C23CCCCC3)CC1` (stereo unspecified) the Potency was inconclusive: 22.4 µM [inhibitor, single point]. In the case of `COc1cc(/C=C(/CC(=O)O)c2nc3ccccc3s2)cc(OC)c1`, the Potency is reported as inconclusive: 25.1 µM [inhibitor, partial curve, poor fit]. For `N#Cc1c[nH]n2c(NC3CCCCC3)c(-c3cccc(Cl)c3)nc12`, the Potency was inconclusive: 1.41 µM [inhibitor, partial curve, poor fit]. In the case of `CCc1ccccc1Cn1c(=O)oc2cccnc21`, the Potency is reported as inconclusive: 35.5 µM [inhibitor, partial curve, poor fit]. In the case of `CCO[C@H]1CN(Cc2cnc(-c3cccs3)nc2)C[C@@H]1O`, the Potency is reported as inconclusive: 31.6 µM [inhibitor, partial curve, poor fit]. For `CC(C)(CNC(=O)c1nn(Cc2ccccc2)c(=O)c2ccccc12)N1CCOCC1`, the “activity change, negative = inhibition” value was inactive: 16.8%. `COc1ccc(NC(=O)c2cn3c4c(ccc(Cl)c4c2=O)OC(C)C3)cc1OC` (stereo unspecified) was tested, and the Potency was inconclusive: 25.1 µM [inhibitor, partial curve, poor fit]. For `O=C1C=C(c2ccccc2)C/C1=C\c1ccccc1`, the Potency was inconclusive: 14.1 µM [inhibitor, partial curve, poor fit].
